# Measured values taken from the supplement of paper PMC8813932.
# Counter-ions that a name gives are not always drawn. ± gives the standard deviation of the averaged measurements. The list shows a part of the results. Most values come without repeats; read them as rough.
# How the values were obtained:
# Test in all cases: log2 surviving fraction relative to plate median (drug vs vehicle, or drug+dl922-947 vs dl922-947 alone); ovarian cancer lines: OVCAR4 is platinum-sensitive while Ov4Cis resists cisplatin and Ov4Carbo carboplatin; higher = more cell survival
# Details in all cases: compound concentration: 10 uM, 192 h
# OVCAR4 = test system: OVCAR4
# Ov4Carbo = test system: Ov4Carbo
# Ov4Cis = test system: Ov4Cis
# [1] = dl922-947 oncolytic adenovirus co-treatment: MOI 10
# [2] = dl922-947 oncolytic adenovirus co-treatment: none
Structure (SMILES),log2 surviving fraction (OVCAR4; [1]),log2 surviving fraction (OVCAR4; [2]),log2 surviving fraction (Ov4Carbo; [1]),log2 surviving fraction (Ov4Carbo; [2]),log2 surviving fraction (Ov4Cis; [1]),log2 surviving fraction (Ov4Cis; [2])
CN[C@@H]1[C@H](O[C@H]2[C@H](O[C@H]3[C@H](O)[C@@H](O)[C@H](N=C(N)N)[C@@H](O)[C@@H]3N=C(N)N)O[C@@H](C)[C@]2(O)C=O)O[C@@H](CO)[C@H](O)[C@H]1O [Streptomycin sulfate],1.57 ± 0.43,0.37 ± 2.3,0.368,0.85,1.35,1.07
N=C(N)NC(=N)NCCc1ccccc1 [Phenformin hydrochloride],-0.874 ± 0.61,-1.29 ± 0.58,0.59,-0.452,-0.215,-0.144
O=C(O)c1cccnc1 [Niacin (Nicotinic acid)],-1.432 ± 0.0063,-0.104 ± 0.39,1.5,1.03,-0.271,-0.24
Cc1ccc(C(=O)c2cc(O)c(O)c([N+](=O)[O-])c2)cc1 [Tolcapone],0.603 ± 0.58,0.975 ± 1.6,-0.741,2.49,-0.314,0.774
COC(=O)Nc1nc2cc([S+]([O-])c3ccccc3)ccc2[nH]1 (configuration not stated) [Oxfendazole],-0.951 ± 0.27,-2.59 ± 0.98,-1.18,-1.3,-1.19,-1.91
C=C1/C(=C\C=C2/CCC[C@]3(C)[C@@H]([C@H](C)CCCC(C)C)CC[C@@H]23)C[C@@H](O)C[C@@H]1O [Alfacalcidol],-0.218 ± 0.6,-1.08 ± 0.73,-0.336,-1.67,-0.379,-0.169
Nc1ccn([C@@H]2O[C@H](CO)[C@@H](O)C2(F)F)c(=O)n1 [Gemcitabine HCl (Gemzar)],-6 ± 0.97,-5.13 ± 4.7,-6.92,-11.1,-5.36,-7.45
O=C(O)C(=O)O.[NH-]C1CCCCC1[NH-].[Pt+2] (configuration not stated) [Oxaliplatin (Eloxatin)],0.268 ± 1.3,1.87 ± 3.5,-0.959,1.73,0.284,-0.207
Cc1nccn1CC1CCc2c(c3ccccc3n2C)C1=O (configuration not stated) [Ondansetron (Zofran)],-0.157 ± 0.033,-0.219 ± 0.3,-0.831,0.278,0.199,0.0937
CCCCOc1ccc(C(=O)CCN2CCCCC2)cc1 [Dyclonine HCl],-0.579 ± 0.59,-0.0645 ± 1.3,-0.183,-0.449,-0.743,-0.253
Cc1cnc(C(=O)NCCc2ccc(S(=O)(=O)NC(=O)NC3CCCCC3)cc2)cn1 [Glipizide (Glucotrol)],-2.29 ± 0.91,-2.6 ± 1.5,0.831,0.823,-2.17,-2.53
CC(C)(C)CC(C)(C)c1ccc(OCCOCC[N+](C)(C)Cc2ccccc2)cc1 [Benzethonium chloride],-10.2 ± 0.97,-12.2 ± 6.3,-8.67,-12.1,-8.83,-15.4
O=C(O)C[C@H](O)C[C@H](O)/C=C/c1c(C2CC2)nc2ccccc2c1-c1ccc(F)cc1 [Pitavastatin calcium (Livalo)],-3.11 ± 0.31,-5.79 ± 2.3,-3.49,-8.57,-2.21,-6.97
C#CCN[C@@H]1CCc2ccccc21 [Rasagiline mesylate],-0.0363 ± 0.59,0.282 ± 0.63,-0.88,-0.777,-0.421,0.161
CCN(CC)CCOC(=O)C1(C2CCCCC2)CCCCC1 [Dicyclomine HCl],-0.0762 ± 0.049,-0.217 ± 0.96,-1.22,-1.35,-0.0263,0.358
O=C(O)c1cc(/N=N/c2ccc(O)c(C(=O)O)c2)ccc1O [olsalazine sodium],0.0874 ± 0.18,0.559 ± 0.24,-0.0216,1.1,0.452,0.619
COC(=O)N/N=C/c1c[n+]([O-])c2ccccc2[n+]1[O-] [Carbadox],-0.682 ± 0.77,-0.35 ± 0.54,0.474,0.995,-0.131,0.577
CNC(=O)Oc1ccc2c(c1)[C@]1(C)CCN(C)[C@@H]1N2C [Physostigmine Salicylate],0.243 ± 0.25,-0.982 ± 1.7,1.51,-0.515,-1.01,0.409
CCOC(=O)[C@H](CCc1ccccc1)N[C@@H](C)C(=O)N1Cc2cc(OC)c(OC)cc2C[C@H]1C(=O)O [Moexipril HCl],1.35 ± 0.91,0.765 ± 0.87,0.179,0.641,-0.352,0.574
C[C@]12CC[C@@H]3c4ccc(O)cc4CC[C@H]3[C@@H]1CCC2=O [Estrone],1.1 ± 0.49,0.126 ± 0.63,0.832,-0.32,0.129,0.394
C[C@H](NC(=O)Cc1cc(F)cc(F)c1)C(=O)N[C@H](C(=O)OC(C)(C)C)c1ccccc1,-0.685 ± 0.096,-0.624 ± 0.51,-0.155,0.36,-0.755,-0.456
CN(C)C(=O)Oc1cccc([N+](C)(C)C)c1 [Neostigmine bromide (Prostigmin)],-0.0693 ± 0.12,0.254 ± 0.27,-0.207,0.176,0.304,0.269
Nc1ccc(S(=O)(=O)Nc2nccs2)cc1 [Sulfathiazole],0.215 ± 0.93,0.0463 ± 0.059,0.473,0.833,0.234,-0.417
OCCN1C[C@H](O)[C@@H](O)[C@H](O)[C@H]1CO [Miglitol (Glyset)],0.345 ± 0.85,0.375 ± 0.04,-0.353,0.263,0.755,1

Structure (SMILES),log2 surviving fraction (OVCAR4; [1]),log2 surviving fraction (OVCAR4; [2]),log2 surviving fraction (Ov4Carbo; [1]),log2 surviving fraction (Ov4Carbo; [2]),log2 surviving fraction (Ov4Cis; [1]),log2 surviving fraction (Ov4Cis; [2])
NCCC(O)(P(=O)(O)O)P(=O)(O)O [Pamidronate Disodium],-0.0576 ± 1.2,1.17 ± 0.13,1.33,0.73,0.554,0.253
N=C(N)NC(=O)c1nc(Cl)c(N)nc1N [Amiloride hydrochloride dihydrate],0.389 ± 0.24,0.285 ± 0.32,0.804,-1.54,0.176,0.712
NC[C@H]1CC[C@H](C(=O)O)CC1 [Tranexamic acid (Transamin)],-0.385 ± 0.89,1.01 ± 0.12,1.41,-1.98,0.259,0.000549
OCCN(CCO)c1nc(N2CCCCC2)c2nc(N(CCO)CCO)nc(N3CCCCC3)c2n1 [Dipyridamole (Persantine)],-0.407 ± 0.31,0.371 ± 0.42,-0.0867,-1.52,0.184,-0.474
CN(C)[C@@H]1C(O)=C(C(N)=O)C(=O)[C@@]2(O)C(O)=C3C(=O)c4c(O)cccc4[C@@](C)(O)[C@H]3[C@H](O)[C@@H]12 [Oxytetracycline (Terramycin)],-0.0781 ± 2.2,0.414 ± 0.81,0.512,0.45,0.207,0.0453
COc1ccccc1OCC(O)COC(N)=O (configuration not stated) [Methocarbamol (Robaxin)],0.0262 ± 0.28,0.283 ± 0.4,-1.29,0.902,0.137,0.134
CCCCNC(=O)NS(=O)(=O)c1ccc(C)cc1 [Tolbutamide],0.417 ± 1.2,0.658 ± 0.31,0.165,0.712,1.22,0.592
CC(C(=O)O)c1cccc(C(=O)c2ccccc2)c1 (configuration not stated) [Ketoprofen (Actron)],-0.281 ± 1.3,0.276 ± 1,1.62,-1.06,0.511,1.28
CCC1(c2ccccc2)C(=O)NCNC1=O [Primidone (Mysoline)],0.0702 ± 0.95,-0.34 ± 0.61,0.164,0.205,-0.0142,0.253
O=C(O)Cc1ccccc1Nc1c(Cl)cccc1Cl [Diclofenac Diethylamine],0.425 ± 0.78,-0.685 ± 1.2,-1.18,0.602,-1.22,-0.476
CCN1CCN(c2cc(-c3ccc(F)cc3)c3c(n2)CCCCCC3)CC1 [Blonanserin (Lonasen)],-0.505 ± 0.37,0.24 ± 0.071,0.127,-2.09,-0.563,0.476
CC(C)(OCc1nn(Cc2ccccc2)c2ccccc12)C(=O)O [Bindarit],-1.45 ± 0.22,0.217 ± 0.18,-1.49,0.991,-0.564,-2.47
CN(C)CCN1C(=O)c2ccccc2N(C)c2ccccc21 [Dibenzepine HCl],0.556 ± 0.68,0.176 ± 0.14,0.0284,-1.11,0.732,0.249
O=C(O)COCCN1CCN(C(c2ccccc2)c2ccc(Cl)cc2)CC1 (configuration not stated) [Cetirizine Dihydrochloride],-0.606 ± 0.26,-0.117 ± 0.054,-0.329,0.566,-0.32,0.389
O=C1CCC(N2C(=O)c3ccccc3C2=O)C(=O)N1 (configuration not stated) [Thalidomide],0.702 ± 0.12,3.19 ± 2.7,1.07,2.64,1.7,0.869
Cc1cc(N)c2ccccc2[n+]1CCCCCCCCCC[n+]1c(C)cc(N)c2ccccc21 [Dequalinium chloride],-3.1 ± 2.1,-4.86 ± 0.26,-2.22,-7.2,-1.98,-5.32
OC1(c2ccc(Cl)c(C(F)(F)F)c2)CCN(CCCC(c2ccc(F)cc2)c2ccc(F)cc2)CC1 [Penfluridol],-10.5 ± 0.59,-12.2 ± 6.5,-8.91,-12.6,-8.64,-15.4
C[C@@H](O)[C@H]1C(=O)N2C(C(=O)O)=C(S[C@@H]3CN[C@H](CNS(N)(=O)=O)C3)[C@H](C)[C@H]12 [Doripenem Hydrate],0.275 ± 0.25,0.673 ± 0.71,0.117,-0.199,0.208,0.42
O=C([O-])C(O)[C@H](O)[C@@H](O)[C@H](O)[C@H](O)CO.O=C([O-])C(O)[C@H](O)[C@@H](O)[C@H](O)[C@H](O)CO.[Ca+2] (some centres not stated) [Calcium Gluceptate],0.327 ± 0.17,0.198 ± 1.2,0.997,0.0484,0.298,0.364
CN1[C@@H]2C[C@@H](OC(=O)[C@H](CO)c3ccccc3)C[C@H]1[C@@H]1O[C@@H]12 [Scopolamine hydrobromide],0.288 ± 0.65,0.644 ± 0.18,-0.251,-0.349,0.667,0.636
Cc1ncc(CO)c(CO)c1O [Pyridoxine hydrochloride],0.399 ± 0.6,-0.141 ± 0.086,-0.241,0.226,0.372,-0.0611
OCC(O)CN1CCN(c2ccccc2)CC1 (configuration not stated) [Dropropizine],0.635 ± 0.037,0.931 ± 0.38,0.502,-5.38,0.778,1.1
CCOc1nc2cccc(C(=O)OCc3oc(=O)oc3C)c2n1Cc1ccc(-c2ccccc2-c2noc(=O)[nH]2)cc1 [Azilsartan Medoxomil (TAK-491)],0.359 ± 0.029,1.24 ± 1.4,-0.185,1.2,1.13,-1.43
